Experimental findings from the RNAGym collection of RNA variant scans (doi:10.7554/elife.90254) are described below.

B1: LINE1-full (parent)
chain: UACGUAGGUGGUUUUCCCCUGAUAGUGCUAAGGGGGCCUGGAAGUUUGGACUGGGCAGAGCUCAACACAGCGUGGCAAAGUGGCUGUGGCUAGACUGCCUCUCUGGAUUCCUCGUCACUCAGCAGGGCAUCUCUGAGAGAAAUGCC

Read counts are not given, so values of variants with three or more changes are uncertain.

In this series the parent is B1. Put plainly: self-cleavage, relative activity (ratio to wild type); higher = more cleavage; in vitro, sequencing; the parent is a self-cleaving ribozyme.
Consider U5C A6G U52A U73C, for which the self-cleavage was 1.67.

As for A2U C18U A42G G126A, the self-cleavage came out at 0.83.

Turning to C3U A79G U134A A140G, the self-cleavage turned out to be 0.

For U5C A24G U104C, the self-cleavage worked out at 1.31.

For the variant A2G U46C A77U A129G, the self-cleavage worked out at 0.

On to U5C G36C A65U, for which the self-cleavage was determined as 0.24.

For the variant A2G U20A A92U, the self-cleavage came to 0.78.

As to U5C A92G U119A, the self-cleavage came out at 0.18.

For U5A C37A U143C, the self-cleavage was 0.53.

On to U5A U29C A43G, for which the self-cleavage was found to be 0.85.

On to C3U G8A U14C U39C A59U G86A G127A, for which the self-cleavage amounted to 0.11.

With U5C G74A A129U, the self-cleavage was found to be 1.04.

Turning to A2G U26G U29C, the self-cleavage came to 0.57.

With C3A U39C U62C, the self-cleavage was 0.

In the case of A2U U62C U119A, the self-cleavage was found to be 0.19.

In the case of C3U A64U U108C, the self-cleavage turned out to be 0.69.

Consider U5A U12A A136G, for which the self-cleavage worked out at 1.13.

Take C3A U15C A42G A43G U108C: the self-cleavage came out at 1.41.

Take U5A U12G A94G G105U: the self-cleavage turned out to be 0.3.

G4A A43G U108C: the self-cleavage was 2.16.

U5A C37G U47C U119C: the self-cleavage came to 0.5.

As to C3U A57G A140G, the self-cleavage turned out to be 0.22.

A2U A65G U130A: the self-cleavage is 0.05.

On to U5A U9C C28A U132A, for which the self-cleavage came to 0.91.

In the case of U5A U13C C37U A67U G72A U119C, the self-cleavage amounted to 0.08.

As to A2G U87A G126A G139A, the self-cleavage came out at 0.28.

Take C3U U39C U134C: the self-cleavage stood at 0.56.

As to A2G U29A A43G U115G G122A, the self-cleavage was 0.69.

Regarding A2U A57U U143C, the self-cleavage amounted to 0.11.

With G4A U9C U23C C116U G125A, the self-cleavage turned out to be 0.67.

On to U5C A42G U73C C131U, for which the self-cleavage amounted to 1.38.

Regarding U5C A59G A77U A121U, the self-cleavage amounted to 0.32.

Regarding C3U U12C A136G A142C, the self-cleavage worked out at 2.03.

Turning to G4A U9C U115C C116U, the self-cleavage stood at 1.5.

As to U5C C71U A79U U108C, the self-cleavage is 1.31.

Regarding U5A A6C A121G A141G U143C, the self-cleavage was found to be 1.31.

On to C3U U26C U112A, for which the self-cleavage came to 0.76.

On to A2G U15A U119C, for which the self-cleavage is 0.58.

With C3G U39A U109C U112C, the self-cleavage worked out at 1.05.

Regarding U5C A107C C145U, the self-cleavage stood at 0.88.

For U5A U15C U52C U87A A124U, the self-cleavage turned out to be 0.14.

Consider A2G U20C A22G U39G U96A, for which the self-cleavage worked out at 0.

Consider U5C U9C U85A, for which the self-cleavage was 0.11.

For U5C G72U U115A C131U, the self-cleavage was determined as 1.19.

On to A2U A67G U96A A129C, for which the self-cleavage came out at 0.51.

Take C3U A121G A142G: the self-cleavage is 1.65.

In the case of C3U A22G A121U, the self-cleavage amounted to 1.09.

With U5A C28U A77U C118A U130C, the self-cleavage worked out at 1.5.

Take C3U A79G U109C: the self-cleavage was 0.46.

With C3U U52A A65U U100C U119C, the self-cleavage amounted to 0.34.

As to G4U U12C A79G U119C A140G, the self-cleavage was 2.63.

In the case of G4A U26C A142G, the self-cleavage turned out to be 0.84.

In the case of U5C G40A U47C U91C, the self-cleavage was 0.44.

On to A2G U87A A141G, for which the self-cleavage stood at 0.48.

Turning to A2U A22G A42G U73A, the self-cleavage worked out at 1.86.

As for U5C A42G A124G, the self-cleavage amounted to 0.6.

For U5C A6G G144A, the self-cleavage was 0.52.

For U5C A22G U62A A138G, the self-cleavage stood at 0.

On to G4A C76U A121G U143C, for which the self-cleavage amounted to 2.93.

Regarding U5C A77U A78G, the self-cleavage was determined as 0.92.

With G4A U87A U115C C123U, the self-cleavage stood at 0.07.

In the case of C3A G83A U115A, the self-cleavage was 0.51.

Turning to G4A A22G A69G, the self-cleavage stood at 0.63.

On to A2G U100C A140G, for which the self-cleavage came out at 1.21.

Turning to G4A U14C G97A, the self-cleavage amounted to 0.08.

Regarding A2G U14C U52A U87G, the self-cleavage was found to be 0.85.

G4A U20G G34U A42G A77U C118U: the self-cleavage came out at 1.06.

As for A2G U45C A77U A142G, the self-cleavage was determined as 1.12.

Turning to G4U U73C A78G, the self-cleavage stood at 1.1.

As to U5C U12G A42G U46C A59G, the self-cleavage was determined as 0.

In the case of G4C U13C U29C A42G, the self-cleavage was determined as 0.37.

Regarding U5C U12C A31C U46C G58U U102C, the self-cleavage is 0.

In the case of A2G U26A U47A, the self-cleavage was found to be 0.48.

As to C3A A59G A107G, the self-cleavage came to 0.

Take C3G A22U A124G: the self-cleavage stood at 0.92.

Regarding G4U G32U U46A U87G, the self-cleavage worked out at 0.32.

In the case of G4C U47C G60U U81C, the self-cleavage was 0.22.

Take C3U G8A A64G G97A A107G A136G: the self-cleavage amounted to 0.07.

For U5C A22G U62C A65G U104A, the self-cleavage was found to be 0.37.

A2G U85C U102A A140G: the self-cleavage was 0.

Turning to A2U U13C A57U U62C, the self-cleavage was found to be 0.23.

For the variant C3U U47A A77G, the self-cleavage turned out to be 1.62.

Consider C3U U87C U132C, for which the self-cleavage amounted to 0.13.

On to U5A G74A U134A A136G, for which the self-cleavage came to 1.26.

Take U5A U20C C113U A141C: the self-cleavage stood at 0.82.

In the case of U5C A64G C113U, the self-cleavage is 0.44.

With C3U U81A U96A U104G, the self-cleavage came out at 0.11.

Regarding C3U U15C A107G, the self-cleavage stood at 1.58.

Regarding A2G U39C A141C, the self-cleavage worked out at 0.95.

For A2G U46C G105C, the self-cleavage came out at 0.92.

In the case of C3U A79U U85C U143C, the self-cleavage is 0.13.

For C3A G86A U91C, the self-cleavage came to 0.09.

Consider C3U U15C A77G, for which the self-cleavage worked out at 1.34.

In the case of A2U U87A A117U, the self-cleavage stood at 0.08.

For the variant C3A A22G C113U, the self-cleavage was 0.86.

In the case of A2U C28G A65G U102C, the self-cleavage worked out at 0.

Consider C3U U12G U73A A78G, for which the self-cleavage turned out to be 0.51.

With A2G U15A U81A U87A A142U, the self-cleavage is 0.21.

Turning to A2U U29C U62C, the self-cleavage was 0.

On to G4A U26A U87A, for which the self-cleavage was determined as 0.05.

Take G4A A65C U112C C113U U119A: the self-cleavage was 0.02.

For U5C C19U A121U U130C, the self-cleavage amounted to 1.8.

As for U5C U12C U26C U130C, the self-cleavage turned out to be 0.74.

For the variant U5A U85A U143A, the self-cleavage stood at 0.12.

Take C3A U73C A141G: the self-cleavage was 1.31.

Turning to U5C A64U A79C, the self-cleavage was determined as 0.65.

As for G4A A77U U81A A121U, the self-cleavage amounted to 2.52.

With G4A U14G A57U, the self-cleavage was determined as 0.08.

With C3U U14C A77G A107G, the self-cleavage is 0.

Consider U5C A42G U52C U85C, for which the self-cleavage was found to be 0.

As for C3U A43G U91C U96C, the self-cleavage stood at 0.

As for A2G U23C G33U U46A U112C U130C, the self-cleavage was 1.84.

As to A2G U109G A136G, the self-cleavage was 1.11.

In the case of A2G U62C U119A, the self-cleavage is 0.16.

Turning to U5C G75A U87A U96C A136G, the self-cleavage turned out to be 0.

As to A2U U81C U108C, the self-cleavage came out at 1.23.

For A2G U29C U112C, the self-cleavage is 0.44.

On to U5A G58A A94U, for which the self-cleavage was determined as 0.08.

In the case of U5A U62C U87A U130C, the self-cleavage was determined as 0.

Regarding U5A U20A U45A, the self-cleavage worked out at 0.66.

Consider U5C A22U A69G C76G U130C, for which the self-cleavage came out at 0.87.

Consider C3U G72A A138G, for which the self-cleavage is 0.61.

On to U5A A43G U45C A140G, for which the self-cleavage was 0.38.

A2G U47G G105A A129G: the self-cleavage is 1.41.

For U5C G53U A79G U112A A136G, the self-cleavage amounted to 0.48.

As to A2G U96C A138G, the self-cleavage was 0.

Regarding A2U A77U A138U, the self-cleavage was 0.79.

C3U A30U A42G A77G A129U A142G: the self-cleavage was determined as 1.23.

Regarding A2G U39C U73A A141G A142G, the self-cleavage is 0.

Turning to U5A A69U A107G, the self-cleavage came out at 0.21.

Regarding C3U U23C A79G C101U U115A, the self-cleavage turned out to be 1.31.

Turning to A2U A22U G53A U62C A77U, the self-cleavage stood at 0.12.

Consider G4A U9C U20C C71U, for which the self-cleavage came to 0.8.

A2U A59G A117G: the self-cleavage was determined as 0.

In the case of C3U U20C A78G U112A U130C, the self-cleavage turned out to be 0.48.

For the variant A2G U45A U62C U85G, the self-cleavage amounted to 0.79.

Regarding G4A U46C U62C A124U, the self-cleavage stood at 0.06.

As to G4C G10A G75A U81C, the self-cleavage came to 0.77.

For the variant U5C A57C C110A, the self-cleavage came to 0.04.

In the case of G4A A59G G126A, the self-cleavage was found to be 0.09.

Consider U5A U12G U14C U45A U112C, for which the self-cleavage is 0.88.

For the variant A2G U45C U108C A121U, the self-cleavage was determined as 2.12.

Turning to U5C C76U U112C U134A, the self-cleavage was determined as 0.62.

As for C3U A67C U104A U115C, the self-cleavage amounted to 0.23.

For the variant U5A U15A U62C U73A G97A, the self-cleavage was determined as 0.04.

As for U5A U13C A124U, the self-cleavage is 0.95.

As for A2U U9C U47C C90U U109A, the self-cleavage came out at 0.11.

With A2G U62C U134C, the self-cleavage came out at 0.3.

In the case of U5C U9A A31G U96A U104C C113A C145U, the self-cleavage amounted to 0.16.

As for U5C G55A U119C, the self-cleavage came to 0.65.

On to U5C U9C U12G U115C, for which the self-cleavage is 0.

Turning to U5A C17U A78U U102A U112A A121G, the self-cleavage came to 2.04.

On to U5C A6U U119C, for which the self-cleavage came to 1.19.

As for C3U A59G A65G U115C C128U A129G A136G, the self-cleavage came to 0.

With U5C C51G U73A A92G U115C, the self-cleavage is 0.35.

Turning to A2G U23C U100C, the self-cleavage was determined as 0.8.

On to G4A U26A U52C U132C, for which the self-cleavage worked out at 0.67.

As for U5C A24G U46C A140U, the self-cleavage is 0.56.

On to A2G U45C U47C G127A A138G, for which the self-cleavage was found to be 2.21.

On to U5C A6G C51G, for which the self-cleavage was 0.89.

For the variant U5C A22U U85C C146U, the self-cleavage turned out to be 0.51.

For U5A U91C A141G, the self-cleavage is 0.74.

As for A2U A79U A124G, the self-cleavage was 0.38.

For U5C G34U U39A U96C A142G, the self-cleavage came out at 0.26.

Regarding A2G U14C U87A, the self-cleavage is 0.46.

On to U5C G58A A129G, for which the self-cleavage is 0.19.

A2G U62C A121G: the self-cleavage amounted to 0.
